Out of some 48,000 compounds screened, about 120 (0.25%) were called active. Another 4% or so got no clear call; they are omitted. Calls come from the whole dose curve; as a rule, active = well fitted activation curve with a large enough effect; inconclusive = small, poorly fitted or top-dose-only effect, or another doubt; inactive = no such curve, though single readings can be large or run the other way. This is one part of the list.
Test: Primary qHTS for Identification of Small Molecule Activators of Huntingtin-Antisense Promoter Activity; note: nearly all actives have a fitted effect of over 55% in size
Settings: HEK293 HTT-AS promoter firefly luciferase reporter, 24 h; series mostly up to 57.5 µM; activity change, positive = activation: at the top concentration
Method in brief: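 Luminescence was read after Dual-Glo reagent and a 10 min room-temperature incubation. Values were normalized to vehicle (0% activity) and zero RLU (-100% activity). Reporter HEK293 cells had been exposed to compounds (up to 57.5 uM final) for 24 h.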

Activity change, positive = activation, inactive:
Cc1ccc(NC(=O)c2cccc3c(=O)c4c([nH]c23)CCCC4)c(C)c1 -30.6%
CCOc1ccc(NC(=O)Nc2nnc(N3CCCCC3C)s2)cc1 (centres undefined) -12.3%
CCOC(=O)c1sc2ccccc2c1S(=O)(=O)Nc1ccc(OC)c(Cl)c1 -34.5%
Cc1ccc(NC(=O)Nc2nnc(SCC(=O)N(C(C)C)C(C)C)s2)cc1 -36.5%
COc1cccc(CNC(=O)c2c(C)nn(-c3ccc(F)cc3)c2-n2cccc2)c1 -25.4%
CCc1ccc2oc(-c3ccc(C)c(NC(=O)c4cc([N+](=O)[O-])ccc4N4CCOCC4)c3)nc2c1 -4.93%
CCCCc1ccc(-n2nc3ccc(NC(=O)c4cc5ccccc5o4)cc3n2)cc1 -29.6%
COc1ccc(C(=O)NCCSc2c[nH]c3ccccc23)cc1OC -6.06%
Clc1ccc(CSc2ccc(-c3cccs3)nn2)cc1 13%
CCC(CC)C(=O)N1c2ccccc2C(C)(c2ccccc2)CC1(C)C (centres undefined) -8.59%
CSc1ncc(C(=O)Nc2cc(C)cc(C)c2)c(-c2ccccc2)n1 -23.5%
COc1ccc(-n2c(=O)c3c4c(sc3n(Cc3ccc(F)cc3)c2=O)CN(C(C)=O)CC4)c(OC)c1 -31.8%
CC(=O)N1CCc2c(sc3c2c(=O)n(Cc2ccccc2)c(=O)n3Cc2ccc(Cl)cc2)C1 -7.14%
Cc1cc(C)c(Cn2c(=O)n(CCC(=O)NCCc3ccccc3)c(=O)c3ccccc32)c(C)c1 -6.98%
COc1ccc(OC)c(CCNC(=O)c2c(C)oc3ncn(CC(C)C)c(=O)c23)c1 -8.42%
CN1CCN(C(CNC(=O)c2ccc(F)cc2)c2ccc3c(c2)OCO3)CC1 (centres undefined) -2.36%
CCOCCCn1c(SCC(=O)Nc2ccccc2CC)nc2ccccc2c1=O -7.89%
CCOC(=O)Cn1c(=O)oc2cc(S(=O)(=O)N3CCN(c4cccc(Cl)c4)CC3)ccc21 -12.4%
O=C(O)c1sc(Nc2ccccc2)nc1-c1ccccc1 -1.59%
Nc1ccc(C(=O)N2CC3CC(CN(Cc4ccccc4)C3)C2)cc1 1.74%
COc1ccc(C(=O)c2ccccc2O)c(O)c1 8.74%
CCC(=O)N1CCc2cc(S(=O)(=O)NC(Cc3ccccc3)C(=O)NCc3ccccc3)ccc21 (centres undefined) 3.38%
Cc1ccc(OCC(=O)Nc2ccc(OCc3cc(=O)n4ccsc4n3)cc2)cc1C 23%
CCN(C(=O)CN1C(=O)c2ccccc2Sc2ccc(C(=O)OC)cc21)c1cccc(C)c1 -8.16%
CCCCNc1nc2c(S(=O)(=O)c3ccc(Br)cc3)nnn2c2ccsc12 -10.3%
Cc1ccc(NC(=O)Cn2c(=O)n(Cc3nc(-c4ccccc4)no3)c(=O)c3ccccc32)c(C)c1 -9.2%
Cc1ccc(Nc2c(-c3ccccn3)nc3ccc(Br)cn23)cc1 5.21%
CCC(=O)N1CCc2cc(Br)cc(S(=O)(=O)N3CCCC(C(=O)Nc4ccc(C)c(F)c4)C3)c21 (centres undefined) -34.6%
Cc1ccc(C(=O)N(Cc2ccc(N(C)C)cc2)CC2CCCO2)cc1 (centres undefined) -2.72%
Cc1nn(C(C)C(=O)NCc2ccc(OC(C)C)cc2)c(=O)c2c1sc1ccccc12 (centres undefined) -23%
CC(C)(C)NCC(O)COc1cccc2c1C[C@H](O)[C@H](O)C2 (some centres undefined) -2.03%
Cc1ccc2ccc3cc(C(=O)N4CCN(c5ccccc5F)CC4)nc3c2[nH]1 -18.5%
CCCCNC(=O)CCC(=O)NNc1nc2ccccc2c2nc(C)nn12 -2.29%
CC(CCc1ccccc1)NC(=O)CSc1n[nH]c(-c2ccccc2)n1 (centres undefined) -34.7%
COc1ccccc1NC(=O)c1c(-c2ccc(C)cc2)nnc2ccccc12 3.95%
CCCn1c(=N)c(C(=O)NCC2CCCO2)cc2c(=O)n3cc(C)ccc3nc21 (centres undefined) -12.2%
Cc1cccc(-c2nc(SCc3cc(=O)c4c(C)cc(C)cc4[nH]3)n[nH]2)c1 -41.4%
COCCN(CCOC)S(=O)(=O)c1ccc(C(=O)Nc2sc3c(c2C(N)=O)CCCC3)cc1 -34.2%
O=C(Cn1ncc2c3ccccc3n(Cc3ccccc3)c2c1=O)NCCc1ccc(Cl)cc1 -13.5%
COc1ccc(S(=O)(=O)N2CCC(c3nc4ccccc4s3)CC2)cc1OC -0.755%
CCCNC(=O)c1ccc2c(c1)N=C(CCC)c1ccccc1S2 -49.9%
COc1cccc(NC(=O)Cn2nc(N3CCN(c4ccccc4)CC3)ccc2=O)c1 -9.34%
O=C(Cn1nc2c(cc1=O)CCCC2)NCc1ccc(Cl)cc1 -32.2%
Cc1ccccc1Cn1ccn(-c2ccc(F)c(F)c2)c(=O)c1=O 0.968%
CCOC(=O)CSc1nc2ccccc2c(=O)n1-c1ccc(C(=O)NCCOC)cc1 -3.7%
O=C(Nc1ccccc1C(F)(F)F)N1CCOc2ccc(Cl)cc21 -17.8%
Cc1ccc(N2C(=O)CS(=O)(=O)C23C(=O)Nc2ccccc23)cc1C (centres undefined) -15.4%
CCOc1ccccc1-c1noc(CSc2nnc(-c3ccccc3)n2-c2ccc(OC)cc2)n1 -38.9%
CCOC(=O)N1CCC(NC(=O)c2ccc3c(c2)N(Cc2ccccc2C)C(=O)c2ccccc2S3=O)CC1 (centres undefined) -31%
CN(Cc1nc(-c2ccc(Cl)cc2)no1)S(=O)(=O)c1ccccc1 -14.6%
COc1ccc(N2CCN(C(=O)Nc3cn(CC(C)C)c(=O)c4ccccc34)CC2)cc1 11.9%
O=C(Nc1cc(Cl)ccc1Cl)c1ccc2c(c1)N(Cc1cccc(Cl)c1)C(=O)c1ccccc1S2=O (centres undefined) -11.5%
Cc1nn(-c2ccccc2)c(OC(=O)c2ccccc2)c1S(=O)(=O)c1ccccc1 -20.1%
COc1c(Cl)cc(C(=O)Nc2cc(-c3nc4ccccc4[nH]3)ccc2C)cc1Cl -31.5%
Cc1ccc2oc(C(=O)Nc3c(C(=O)Nc4cccc(Cl)c4)oc4ccccc34)cc(=O)c2c1 -0.84% [at 11.5 µM, percent change from vehicle, -100% = no light]
CCOC(=O)c1c(C)oc2ncnc(Nc3cccc(C(F)(F)F)c3)c12 -1.65%
O=c1oc2ccccc2cc1-c1cn2cc(Cc3ccc(F)cc3)sc2n1 21.1%
CCc1ccc(NC(=O)CC(NCc2cccnc2)C(=O)O)cc1 (centres undefined) -11%
Cc1ccc(OCC(=O)Nc2ccc(OCc3cc(=O)n4c(C)csc4n3)cc2)cc1C 12.3%
CCOc1ccccc1Nc1sc(C(=O)c2ccccc2)c(N)c1C(=O)Nc1ccc(F)cc1 -8.49%
Cc1ccc(Cn2ccnc2SCC(=O)NCc2ccccc2)cc1 -12.3%
CSc1ccc(CCNC(=O)Cn2nc(C)n3c(cc4sccc43)c2=O)cc1 -6.77%
Cc1nc(-c2ccc(Cl)cc2)sc1CCNC(=O)C(=O)Nc1ccc2c(c1)OCO2 -2.65%
COc1ccc(CNC(=O)C(=O)NCC(c2ccco2)S(=O)(=O)c2ccc(Cl)cc2)cc1 (centres undefined) -27.4%
Cn1c(=O)c2c(nc(SCC(=O)Nc3ccccc3F)n2Cc2ccccc2F)n(C)c1=O -2.12%
COc1ccc(N2CCN(CCCNC(=O)c3c(C)nn(-c4ccc(F)cc4)c3-n3cccc3)CC2)cc1 -35.3%
COc1ccc(S(=O)(=O)N(CC(=O)NC(C)c2ccccc2)c2ccc(C)cc2)cc1OC (centres undefined) -52.8%
CCc1ccc(NC(=O)Cn2nnc(-c3ccccc3N)n2)cc1 -11%
COc1ccccc1N1CCN(C(=O)c2cc3c(=O)n(Cc4cccs4)ccc3nc2C)CC1 -26.3%
CCOC(=O)N1CCc2c(sc3c2c(=O)n(-c2ccc(CC)cc2)c(=O)n3Cc2ccc(F)cc2Cl)C1 -20.5%
Cc1ccc(-n2ncc3c(NCCCn4ccnc4)ncnc32)cc1C 18.8%
CCOC(=O)c1c(NC(=O)Cc2coc3ccc(CC)cc23)sc2c1CCC2 -19.1%
Nc1nc2[nH]cc(CCc3ccc(C(=O)N[C@@H](CCC(=O)O)C(=O)O)cc3)c2c(=O)[nH]1 -9.59%
CC(C)C(=O)Nc1nnc(S(=O)(=O)N2CCc3ccccc32)s1 -19.4%
Cc1cccc(N2CCN(c3ccc4cc(S(=O)(=O)N5CCC(C)CC5)ccc4n3)CC2)c1C 2.34%
COc1ccccc1NC(=O)N1CCN(c2ccc3nnc(-c4ccc(F)cc4)n3n2)CC1 -23.9%
CCOc1ccc(NC(=O)Cn2nc(Cc3cccnc3)c3ccccc3c2=O)cc1 -7.27%
Cc1nc2c3ccccc3nc(NNC(=O)CCC(=O)N3CCN(c4ccc(F)cc4)CC3)n2n1 -15.9%
O=C(Nc1ccc(OC(F)(F)F)cc1)c1cc(-c2ccc(Cl)cc2)on1 0.953%
Cc1cccc(NC(=O)CSc2cn(CC(=O)N3CCOCC3)c3ccccc23)c1C -0.692%
CCSc1nc(-c2ccc(OC)cc2)nc2c1Cc1c(CO)cnc(C)c1O2 -11.1%
Cc1ccc2nc(COc3ccccc3NC(=O)Nc3ccc(F)c(Cl)c3)cc(=O)n2c1 7.13%
CC(=O)N1CCCc2ccc(NC(=O)c3ccc(OC(C)C)cc3)cc21 -40.6%
Cc1ccc(-n2c3nc(=O)n(C)c(=O)c-3cc3ccccc32)c(C)c1 -15.6%
CCC(=O)N1CCc2cc(Br)cc(S(=O)(=O)N3CCCC(C(=O)NCc4ccc(C)cc4)C3)c21 (centres undefined) -22.7%
COc1cccc2cc(-c3nc4sc5c(c4c(=O)[nH]3)CCC(C(C)(C)C)C5)c(=O)oc12 (centres undefined) -10.8%
COc1ccc(S(=O)(=O)c2c(Nc3cccc(Cl)c3)sc(C(=O)c3ccccc3)c2N)cc1 -24.2%
COc1ccc(/C=C/c2nc(C#N)c(N3CCCCC3)o2)cc1OC -12.3%
CCc1ccc(NC(=O)Cn2ncn3c(cc4ccccc43)c2=O)cc1 -4.44%
Cc1ccc2c(=O)cc(C(=O)Nc3c(C)cccc3C)oc2c1 4.17% [at 11.5 µM, percent change from vehicle, -100% = no light]
Cc1cc2c(cc1S(=O)(=O)NCc1ccc(F)cc1)OCCN2C -4.21%
CCCCN(Cc1cc2cc(C)ccc2[nH]c1=O)C(=O)c1cccc(Cl)c1 -27.3%
Cc1ccc(C(=O)c2oc3ccccc3c2NC(=O)COc2ccc(Cl)c(C)c2)cc1 4.21%
COc1cccc(NC(=O)Cn2c(=O)oc3cc(S(=O)(=O)N4CCCCC4)ccc32)c1 -40.4%
